± gives the standard deviation of the averaged measurements. The list shows a part of the results.
tested on: PfAP2-EXP AP2 domain (GST-tagged); experiment: gcPBM binding intensity (ln(normalized median fluorescence intensity)); higher = stronger DNA binding
Outline: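 Each value is the highest Masliner-normalised natural-log median intensity across replicate spots of either orientation of a probe. The probes were primer-extended double-stranded 36-bp intergenic genomic sequences on an Agilent 4 × 180k array, alongside negative controls, exposed for 1 h to GST-tagged P. falciparum DNA-binding domains expressed in E. coli. Bound protein was picked up with Alexa488 anti-GST antibody and scanned at 488 nm.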

| Sequence | gcPBM binding intensity (ln) |
| --- | --- |
| TATATTTCATTATATTGTACAAAATATATATATTAT [XGTACX_site4644] | 8.47 ± 0.25 |
| ATACATGAATAAATATGTACACATATAAAAACATAT [XGTACX_site2740] | 8.68 ± 0.23 |
| ATGTATATAAATATACGTACATAAATATAAGTATAG [XGTACX_site7155] | 8.57 ± 0.26 |
| CATTATATATATTACTAAAAATTTTACCCCTTAGCT [CACACA_negctrl_site302] | 8.49 ± 0.5 |
| TTTTTTCTTTTTATGTGTACTTATTTTATTTAATAA [XGTACX_site1080] | 8.7 ± 0.44 |
| CATTTCTATATAAGCACACACGTGGAATTTTTTTTT [CACACA_site5537] | 8.7 ± 0.26 |
| TTTTAACAAAACTAAATAATCATATATATAAGATAT [GTGCAC_negctrl_site298] | 8.26 ± 0.54 |
| AAATCGTAATATATTTGTACTTATTTGAAAAATCCA [XGTACX_site8141] | 8.41 ± 0.44 |
| TCATATTATAAATAAATAAATAAATATATATATATA [CACACA_negctrl_site577] | 9.97 ± 0.23 |
| ATTATTTGAACAACAAAAAAAAAGAAAAGAAAAGAA [CACACA_negctrl_site1031] | 8.88 ± 0.47 |
| AACACGCGCAGACACACACACACACGCACATATATA [CACACA_site7104] | 8.72 ± 0.49 |
| TTTTTTTTCTTTTTTTTAAGAAATAAATAAATAATT [XGTACX_negctrl_site137] | 7.78 ± 0.28 |
| CTTAAAGGGAAAAATACACACATATAAATATTATGT [CACACA_site2225] | 8.21 ± 0.31 |
| ACTTAATTTTTTTTATGTACTTATTTAAAAAATTTT [XGTACX_site2712] | 8.74 ± 0.35 |
| TTAGTAGTATTATGTAGTACATAATTATCATATCAT [XGTACX_site817] | 8.53 ± 0.21 |
| TAATTATTTTTATATTGTACAATATGTAAATATATA [XGTACX_site592] | 8.39 ± 0.38 |
| AAAAAAAAAAAAAAAAGTACATACAACATTATGAAA [XGTACX_site207] | 8.53 ± 0.31 |
| ATAAATAAATAAATCTGTACATATGTATATGTATAT [XGTACX_site4537] | 8.33 ± 0.31 |
| AATTAAAAAAAAAAAAAAAAAAAAAAATGAAAAAAA [CACACA_negctrl_site1073] | 8.04 ± 0.57 |
| TTTTTTGAATTTAAAAGTACAGGCTTTTACCAAATA [XGTACX_site1356] | 8.11 ± 0.26 |
| AAAAAAGAAAAAAAGTGTACAATATTTATTACATAT [XGTACX_site2277] | 8.08 ± 0.028 |
| GCAAAGCACAAATATGCATGTAGATATAGAATAATG [TGCATGCA_site382] | 8.84 ± 0.4 |
| TTTGTGTATATAACAGTGCAATATTATAAATATAAA [GTGCAC_site9750] | 8.71 ± 0.092 |

| Sequence | gcPBM binding intensity (ln) |
| --- | --- |
| ATAATCCTTGGACACACACACACACTAGTAAATAAA [CACACA_site4423] | 8.71 ± 0.53 |
| AACCCAAAATAATTATGTACATATTTTTAAATATAT [XGTACX_site6487] | 8.62 ± 0.49 |
| TATACGTATACCTATACACACATATATTTATTTATA [CACACA_site6716] | 8.56 ± 0.55 |
| TATATATATAACAGAATGCACTTTATATGTTCATAT [GTGCAC_site9880] | 8.94 ± 0.14 |
| GATATCCTTATATTTGCACACACACCCAATAAAATG [CACACA_site1028] | 8.99 ± 0.34 |
| AAAAAATACAGACACACACACACACGCATATAAATA [CACACA_site7644] | 8.8 ± 0.52 |
| TAATAAATTCATAATTGTACATTGAAGTATTATGCA [XGTACX_site5121] | 8.29 ± 0.28 |
| TTTTTTTATTTTGTATGTACATATCATTTGATATTC [XGTACX_site8449] | 8.82 ± 0.43 |
| AGTAGCGGCGGTATCATGCACACGTATAGATTGTAA [CACACA_site1587] | 8.85 ± 0.48 |
| ATTAAATCCGCACGCACACACACATATTAAGAAAAA [CACACA_site6062] | 8.62 ± 0.4 |
| GTTGAAAAAAATATATGTACGTATATATGTATGTAT [XGTACX_site8201] | 8.86 ± 0.44 |
| TTGTTTATATATATATGTACATATTTTAAGGCATCC [XGTACX_site6976] | 8.79 ± 0.2 |
| CCACGTATACGATGCACACGTATGCTTTATATATAG [CACACA_site4108] | 9.12 ± 0.56 |
| ATTATTACTATATGTGTACACATCAACTGGTTTGAT [CACACA_site5563] | 8.94 ± 0.4 |
| TTGGTAAATATATTTTGAATATAAGAAATATAGACG [CACACA_negctrl_site1634] | 8.63 ± 0.48 |
| TATTTTCAAAATGTTGTACACACAAAAAAAAAAAAA [CACACA_site8437] | 8.6 ± 0.45 |
| ATATACTTTTCAATGTGTACTTATGAATATATATGT [XGTACX_site7972] | 8.54 ± 0.33 |
| TATTTATAAATATGTGTGCACAATTTATTTTATAAT | 8.79 ± 0.15 |
| TTTTTTTTATATATCTGTACATATATATATATATAT [XGTACX_site8280] | 10.1 ± 0.39 |
| TTATTTCTAACATGATGTACTTTTATATTATATAAT [XGTACX_site3574] | 8.64 ± 0.35 |
| AATATATATATAAATAATATACCTATATATTTTTTG [XGTACX_negctrl_site407] | 8.08 ± 0.28 |
| AAAAACAATTTAATCACACATATATGTCACAAAGAT [CACACA_site5043] | 8.79 ± 0.45 |
